Source: the RNAGym collection of RNA variant scans (doi:10.1073/pnas.2313332121)
Variants at the floor of the assay are shown more often than the library holds them.

B1: TPR 5TU (parent)
chain: GGAUCUUCUCGAUCUAACAAAAAAGACAAAUCUGCCACAAAGCUUGAGAGCAUCUUCGGAUGCAGAGGCGGCAGCCUUCGGUGGCGCGAUAGCGCCAACGUUCUCAACUAUGACACGCAAAACGCGUGCUCCGUUGAAUGGAGUUUAUCAUG

Variants of: B1
Assay: polymerase ribozyme fitness, log enrichment relative to wild type (log ratio); higher = more active; in vitro selection for triplet polymerase activity
In short: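 Input and output libraries were sequenced on Illumina after a single in vitro selection round, run in triplicate on PCR-built, transcribed mutant libraries of each subunit of a heterodimeric triplet polymerase ribozyme. Selection annealed libraries to a biotinylated primer, the partner subunit and triplets, incubated them frozen at −7 °C, then gel-excised extended constructs for streptavidin-bead capture and RT-PCR. Genotypes with ≥10 input reads and ≥1 read per output were kept. Fitness is the logarithm, taken in base 2, of genotype enrichment divided by wild-type enrichment, using inverse-variance-weighted replicate averages.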

Variant | polymerase ribozyme fitness (log ratio)
U44A G59C A60U U146A | ≤ -4.2
G42C A115U | ≤ -4.2
C43A C85U G124A G133U U151A | ≤ -4.2
U44A C85A A142C | ≤ -4.2
C43G A89U C93A | ≤ -4.2
U44A A115G | ≤ -4.2
C43A U53A G84A C114U | ≤ -4.2
U44A A52G C85A C118U | ≤ -4.2
U44A G62U C63A A66G G83U A91G C108G G112U | ≤ -4.2
U44A C51G C75U C85G U127G A142G | ≤ -4.2
G42U U102G A120G | ≤ -4.2
C43G A52U C75G G81A C87G | ≤ -4.2
U44A A47C G84A | ≤ -4.2
G42U U78G | ≤ -4.2
G42C U90G G136U U146A | ≤ -4.2
G42C C85G C99U | ≤ -4.2
G42U A47C C93U A97G C118U | ≤ -4.2
C43U U45C A60C A66C A91C | ≤ -4.2
C43U U44A G58A G68C C93A U109C | ≤ -4.2
G42C G48C C85A C99G A106G G133U G141C | ≤ -4.2
G42C C63A A66C A115C G141U | ≤ -4.2

Variant | polymerase ribozyme fitness (log ratio)
U44A A47C G88C | ≤ -4.2
C43A A47C U102A C105U A113C C125G C132A | ≤ -4.2
U44A C54U U61A C99G | ≤ -4.2
C43A A47C | ≤ -4.2
C43U G94A G126U | ≤ -4.2
U44A C51G U90G C116G G133A U135G G141U | ≤ -4.2
C43U C96U G126A A147U U151G | ≤ -4.2
U44A C95U C96G A120C | ≤ -4.2
C43G A91G G124A | ≤ -4.2
G42U A47C G94A U102C A107C A115U | ≤ -4.2
G42U C72U G80C G84C C108U | ≤ -4.2
U44A U53A G81A C87A A106C | ≤ -4.2
C43G A49C C51U G62A G88A A91G C125U A137G | ≤ -4.2
C43U U45A G68A C79A G94A C123U | ≤ -4.2
U44C A91C C105A A115G | ≤ -4.2
G42U C54U A66G C85U A91G C96A A107G | ≤ -4.2
C43G C85U C95G C96A G100A | ≤ -4.2
U44A G80C C87G | ≤ -4.2
G42C C75A C132G | ≤ -4.2
C43U G83U A120G | ≤ -4.2
U44A U78G C85G G100U C103A | ≤ -4.2

Variant | polymerase ribozyme fitness (log ratio)
U44A G92A G94C C123A G133U U139C U146G | ≤ -4.2
C43G C96U C116G A142C | ≤ -4.2
G42C U53A C57U C95U G133U | ≤ -4.2
G42C G83A | ≤ -4.2
G42C G48A U55A C93U | ≤ -4.2
C43U U55G G68C G88A | ≤ -4.2
C43A U55G C76G G84A C131U | ≤ -4.2
U44A U53A G74A C87U | ≤ -4.2
G42C U53A C79A G80C C95A | ≤ -4.2
C43G C95A C96A A121G A142G G152U | ≤ -4.2
G42U A64C C79U G88A A106G A107C A147U | ≤ -4.2
C43U G86U C93U C99G C103G C129G | ≤ -4.2
C43A U44A U55G C93G C114A C132U | ≤ -4.2
C43U G65C A73U A142C U146G | ≤ -4.2
C43A A60U C76A C85G C125U A138G | ≤ -4.2
U44A C57G A107C U135C | ≤ -4.2
C43A C57A C85G G100U A147C | ≤ -4.2
C43G A49C G68C C72U A97U | ≤ -4.2
G42C U139G | ≤ -4.2
C43U U53G | ≤ -4.2
U44A C93A | ≤ -4.2

Variant | polymerase ribozyme fitness (log ratio)
U44A C93G | ≤ -4.2
U44A C93U | ≤ -4.2
C43G G58C A138U G141U | ≤ -4.2
C43U C57U C93G U104A A142G | ≤ -4.2
G42U U55G C85U G128U U146G | ≤ -4.2
U44A U56A U61A A97U | ≤ -4.2
G42C C69G A91C A115G | ≤ -4.2
G42C C149U | ≤ -4.2
G42C U55A G58A U61A C105U A115G A120G U145C C149A | ≤ -4.2
G42C U56A C72G C76G | ≤ -4.2
U44A G81A A137G | ≤ -4.2
G42C C87U C116U | ≤ -4.2
G42U C79G C93U | ≤ -4.2
C43A G62C G84C A89G C118G C149A | ≤ -4.2
U44A C72A U82G C93G A142G | ≤ -4.2
G42C C72U C93G | ≤ -4.2
U44A A52G A91G | ≤ -4.2
C43A C54G U56G G58A | ≤ -4.2
C43G A49C U61C G65C C76A C103G A106C | ≤ -4.2
C43U G50C A60U G84A G117U A137G A138U | ≤ -4.2
